Hit rate of the full screen: of about 310,000 compounds, about 14,000 (4.5%) showed an effect of 50% or more. Effects have a minus sign here. This is one part of the list.
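Further: peak tail current of the secondary pulse compared with the same well before compound.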

Sequence of human ether-à-go-go-related gene (hERG) potassium channel (Q12809 whole entry, looked up): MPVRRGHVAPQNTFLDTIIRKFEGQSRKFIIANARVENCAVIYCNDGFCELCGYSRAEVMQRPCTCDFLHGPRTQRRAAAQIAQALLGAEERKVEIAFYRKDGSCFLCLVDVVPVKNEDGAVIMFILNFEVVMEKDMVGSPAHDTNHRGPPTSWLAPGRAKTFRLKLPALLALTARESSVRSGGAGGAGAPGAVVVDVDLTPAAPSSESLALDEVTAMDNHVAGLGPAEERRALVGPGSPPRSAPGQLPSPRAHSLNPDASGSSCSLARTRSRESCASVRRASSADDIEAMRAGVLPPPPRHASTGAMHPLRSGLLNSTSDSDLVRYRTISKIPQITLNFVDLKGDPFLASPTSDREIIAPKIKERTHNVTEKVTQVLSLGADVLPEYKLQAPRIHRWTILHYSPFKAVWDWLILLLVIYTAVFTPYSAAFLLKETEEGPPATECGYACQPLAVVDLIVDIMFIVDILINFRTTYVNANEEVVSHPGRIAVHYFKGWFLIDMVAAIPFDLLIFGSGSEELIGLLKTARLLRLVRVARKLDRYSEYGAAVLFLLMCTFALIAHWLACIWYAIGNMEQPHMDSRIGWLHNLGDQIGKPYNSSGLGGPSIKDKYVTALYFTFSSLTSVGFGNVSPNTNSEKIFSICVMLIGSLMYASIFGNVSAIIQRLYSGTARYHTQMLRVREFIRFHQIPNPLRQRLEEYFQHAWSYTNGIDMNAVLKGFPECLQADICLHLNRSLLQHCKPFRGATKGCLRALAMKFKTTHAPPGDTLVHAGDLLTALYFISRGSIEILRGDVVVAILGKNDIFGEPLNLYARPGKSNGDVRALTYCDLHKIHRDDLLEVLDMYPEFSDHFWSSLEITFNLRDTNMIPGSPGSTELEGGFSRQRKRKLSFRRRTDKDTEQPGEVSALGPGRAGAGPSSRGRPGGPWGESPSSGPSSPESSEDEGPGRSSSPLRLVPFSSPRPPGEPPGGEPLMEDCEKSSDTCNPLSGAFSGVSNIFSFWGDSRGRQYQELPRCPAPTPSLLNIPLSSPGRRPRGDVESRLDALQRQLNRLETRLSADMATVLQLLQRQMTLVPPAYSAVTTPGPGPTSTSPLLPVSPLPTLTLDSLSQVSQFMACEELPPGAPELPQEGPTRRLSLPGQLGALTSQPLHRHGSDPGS

The experiment addresses human ether-à-go-go-related gene (hERG) potassium channel (human, UniProt Q12809). Description: primary screen, population patch clamp on CHO cells stably expressing hERG.
With `CCOC(=O)Nc1ccc(C(=O)Oc2ccccc2)c(O)c1`, the “hERG current change (%, negative = inhibition) at 10uM” value came out at 1.52%.

With `CCNC(=S)NNC(=O)c1ccc(=O)n(Cc2ccccc2)c1`, the “hERG current change (%, negative = inhibition) at 10uM” value was -1.41%.

For the molecule `C=CCNC(=S)NC(=O)c1csc([N+](=O)[O-])c1`, the “hERG current change (%, negative = inhibition) at 10uM” value is given as -3.79%.

Turning to `CCCCC(C(=O)O)C(C)CC(=O)NNC(=O)c1ccco1` (stereo not drawn), the “hERG current change (%, negative = inhibition) at 10uM” value is 13.2%.

`CCn1c(=O)cc(SCC(=O)Nc2cccc(SC)c2)c2ccccc21`: the “hERG current change (%, negative = inhibition) at 10uM” value came out at 13.5%.

As for `C/C(=N\NC(=O)Cc1ccccc1Cl)c1cccnc1`, the “hERG current change (%, negative = inhibition) at 10uM” value was determined as 12.4%.

In the case of `Cc1cc(OCC(=O)N2CCc3ccccc3C2)c(C)cc1Br`, the “hERG current change (%, negative = inhibition) at 10uM” value stood at 21.6%.

Turning to `COc1ccc2c(c1)[nH]c1c(=O)n(CCN(C)C)cnc12`, the “hERG current change (%, negative = inhibition) at 10uM” value was -34.1%.

For `CC(=O)NCC(=O)N1CCCC(C(=O)c2ccc(-c3ccccc3)c(F)c2)C1` (stereo not drawn), the “hERG current change (%, negative = inhibition) at 10uM” value is listed as -25.1%.

As for `O=C(Nc1ccccc1-c1nc2ccccc2[nH]1)c1sc2ccccc2c1Cl`, the “hERG current change (%, negative = inhibition) at 10uM” value is listed as 1.59%.

On to `CC(OC(=O)c1ccncc1)C(=O)NC1CCCC1` (stereo not drawn), for which the “hERG current change (%, negative = inhibition) at 10uM” value stood at 9.99%.

For the molecule `NNC(=O)CN1C(c2ccc(Br)cc2)=Nc2ccc(Br)cc2C1c1ccccc1` (stereo not drawn), the “hERG current change (%, negative = inhibition) at 10uM” value was -30.8%.

On to `CC(C)Cc1nnc(NC(=O)CCC(=O)N2CCN(c3ccccn3)CC2)s1`, for which the “hERG current change (%, negative = inhibition) at 10uM” value is -11.3%.

With `O=C(CN1CCOCC1)Nc1ccc(NC(=O)CN2CCOCC2)c(Cl)c1`, the “hERG current change (%, negative = inhibition) at 10uM” value was 2.62%.

For the molecule `CCN1CCCC1CNCc1cccc(OC)c1OCc1ccccc1.Cl` (stereo not drawn), the “hERG current change (%, negative = inhibition) at 10uM” value was -26.9%.

Consider `NC(=O)Nc1ccc(C(=O)OCC(=O)N2CCc3ccccc3C2)cc1`, for which the “hERG current change (%, negative = inhibition) at 10uM” value is recorded as 5.29%.

In the case of `CCC(C(=O)NCc1ccccn1)n1c2ccccc2c2nc(=O)cc(C)n21` (stereo not drawn), the “hERG current change (%, negative = inhibition) at 10uM” value was -1.77%.

`Cc1ccc2cc(/C=N/NC(=O)c3ccc(F)cc3)c(Cl)nc2c1`: the “hERG current change (%, negative = inhibition) at 10uM” value was -5.9%.

In the case of `S=C(c1ccc(Br)cc1)N1CCCC1`, the “hERG current change (%, negative = inhibition) at 10uM” value is given as -3.82%.

Regarding `O=C(c1cnn2c1NC(c1ccc(Br)cc1)CC2C(F)(F)F)N1CCN2CCCC2C1` (stereo not drawn), the “hERG current change (%, negative = inhibition) at 10uM” value is reported as -63.5%.

On to `CCN1CCCC1CNCc1cccc(OC)c1OCc1ccccc1F.Cl` (stereo not drawn), for which the “hERG current change (%, negative = inhibition) at 10uM” value is -54.4%.

Turning to `COc1ccc(C2CC(c3ccc(C)cc3)=NN2C(=O)c2ccccc2)cc1` (stereo not drawn), the “hERG current change (%, negative = inhibition) at 10uM” value is listed as 21.4%.

With `CCCC(=O)Nc1cc(-c2nnc(OC)c3ccccc23)ccc1N1CCOCC1`, the “hERG current change (%, negative = inhibition) at 10uM” value is listed as -42.9%.

For the molecule `COc1ccc(-c2csc(NC(=O)CS(=O)(=O)c3ccc(F)cc3)n2)cc1OC`, the “hERG current change (%, negative = inhibition) at 10uM” value was -25.6%.

Regarding `COc1cc(CN2CCc3c([nH]c4ccccc34)C2)cc(OC)c1`, the “hERG current change (%, negative = inhibition) at 10uM” value is recorded as -55.7%.

`Cc1cccc(Nc2nc(CC(=O)O)cs2)c1`: the “hERG current change (%, negative = inhibition) at 10uM” value is 5.01%.

For `Cn1nnnc1SCc1csc(C2C(C#N)=C(N)OC3=C2C(=O)CCC3)c1` (stereo not drawn), the “hERG current change (%, negative = inhibition) at 10uM” value is listed as -12.2%.

`Cc1nn2c(NCc3ccccn3)c3c(nc2c1-c1ccccc1)CCC3`: the “hERG current change (%, negative = inhibition) at 10uM” value was -51%.

For `Cc1ccc2c(c1)N(CCC(=O)NCCCN1CCCC1)C(=O)C(C)O2` (stereo not drawn), the “hERG current change (%, negative = inhibition) at 10uM” value turned out to be 22.4%.

For `Cc1ccc(C)c(OCC(=O)Nc2ccccc2C(=O)N2CCN(C)CC2)c1`, the “hERG current change (%, negative = inhibition) at 10uM” value is -9.99%.

For `CC(C)(C)NC(=O)Nc1nnc(SCC(=O)NC2CCCCC2)s1`, the “hERG current change (%, negative = inhibition) at 10uM” value is recorded as -0.523%.

As to `O=C1CC(c2ccco2)Cc2nc(NCC3CCCO3)ncc21` (stereo not drawn), the “hERG current change (%, negative = inhibition) at 10uM” value is recorded as -32.4%.

`CC1CC1C(=O)OCC(=O)Nc1cccc(F)c1` (stereo not drawn): the “hERG current change (%, negative = inhibition) at 10uM” value came out at 3.09%.

Regarding `Cc1ccc(OCCNC(=O)C2CCCCC2)cc1`, the “hERG current change (%, negative = inhibition) at 10uM” value is -2.18%.

On to `O=C(COC(=O)c1cccc(S(=O)(=O)N2CCCCC2)c1)NC1CCCc2ccccc21` (stereo not drawn), for which the “hERG current change (%, negative = inhibition) at 10uM” value is listed as 15.8%.

`CO/N=C/c1ccc(Oc2ccc(C)cc2)c([N+](=O)[O-])c1`: the “hERG current change (%, negative = inhibition) at 10uM” value is given as 12.1%.

In the case of `CSc1ccccc1NC(=O)CN(Cc1ccc(Cl)cc1)S(C)(=O)=O`, the “hERG current change (%, negative = inhibition) at 10uM” value is listed as -16.2%.

On to `CC(=O)Nc1ccc(Nc2nc(C)c([N+](=O)[O-])c(N(C)c3ccccc3)n2)cc1`, for which the “hERG current change (%, negative = inhibition) at 10uM” value is on record as -48.2%.

In the case of `COC(=O)COc1cccc2c(=O)n(CC(=O)N3CCC(C)CC3)ccc12`, the “hERG current change (%, negative = inhibition) at 10uM” value turned out to be 5.01%.

Regarding `COc1cc(/C(C)=N/NC(=O)CSc2nc3ccccc3[nH]2)ccc1O`, the “hERG current change (%, negative = inhibition) at 10uM” value is -22.5%.

As for `O=C(Nc1nnc(-c2ccccc2SCc2ccccc2)s1)Nc1ccccc1F`, the “hERG current change (%, negative = inhibition) at 10uM” value was found to be 22.9%.

On to `CN(Cc1cn(C)nc1-c1cccc(Cl)c1)C1CCOCC1`, for which the “hERG current change (%, negative = inhibition) at 10uM” value is -4.25%.

Take `CCOc1ccc(NC(=O)CN(C)C(=O)CC2OC(=O)c3ccccc32)cc1OCC` (stereo not drawn): the “hERG current change (%, negative = inhibition) at 10uM” value amounted to 0.75%.

As for `CC(NC(=O)c1ccc2c(c1)OCO2)C1CCCO1` (stereo not drawn), the “hERG current change (%, negative = inhibition) at 10uM” value is listed as -8.57%.

For the molecule `CCOc1ccc(C(c2nnnn2Cc2ccccc2)N2CCN(C(=O)c3ccco3)CC2)cc1.Cl` (stereo not drawn), the “hERG current change (%, negative = inhibition) at 10uM” value is reported as -57%.

Consider `COc1ccc(CC(=O)NNc2ncnc3c2cnn3C)cc1`, for which the “hERG current change (%, negative = inhibition) at 10uM” value is recorded as 3.18%.

Regarding `COc1cccc(NC(=O)CN(C)C(=O)c2cc3ccccc3cc2OC)c1`, the “hERG current change (%, negative = inhibition) at 10uM” value is -46.6%.

Consider `CCOC(=O)c1ccccc1NC(=O)c1ccc2nc[nH]c2c1`, for which the “hERG current change (%, negative = inhibition) at 10uM” value came to 19.8%.

On to `CC(C)Cn1c(N)c(C(=O)COC(=O)/C=C/c2cccs2)c(=O)n(C)c1=O`, for which the “hERG current change (%, negative = inhibition) at 10uM” value is listed as -49.9%.

Consider `Cc1cc(C=O)c(C)n1-c1ccc(Oc2ccc([N+](=O)[O-])cn2)cc1`, for which the “hERG current change (%, negative = inhibition) at 10uM” value is -56.7%.

As for `CCOc1ccc(-c2nnc(Nc3ccc(OC)c(C(=O)N4CCCCC4)c3)c3ccccc23)cc1`, the “hERG current change (%, negative = inhibition) at 10uM” value is reported as -10.2%.

`N#Cc1cc(C(=O)c2cc(F)ccc2O)cn(Cc2ccccc2)c1=O`: the “hERG current change (%, negative = inhibition) at 10uM” value was 4.69%.

As to `COc1cccc(NC(=O)CN(C)CC(=O)Nc2ccc(Br)cc2)c1`, the “hERG current change (%, negative = inhibition) at 10uM” value is given as -29.9%.

For `COc1cc(CNCCc2ccccc2)ccc1OCc1ccc(Cl)nc1.Cl`, the “hERG current change (%, negative = inhibition) at 10uM” value is reported as -39.5%.

As for `CCOC(=O)C1=C(N)OC2=C(C(=O)CCC2)C1c1cccs1` (stereo not drawn), the “hERG current change (%, negative = inhibition) at 10uM” value amounted to 1.13%.

Take `Cc1ccc(C(=O)N/C(=C\c2ccco2)C(=O)N2CCOCC2)cc1C`: the “hERG current change (%, negative = inhibition) at 10uM” value came to 11%.

`CN(C)S(=O)(=O)c1cccc(-c2csc(=Nc3ccccc3)n2CCCN2CCOCC2)c1`: the “hERG current change (%, negative = inhibition) at 10uM” value is listed as -26.5%.

These data come from PMC4336329 (PLoS ONE, 2015).
